Laboratory results published in PubChem BioAssay AID504832 (National Center for Advancing Translational Sciences (NCATS), 2011).
About 18,000 (5.8%) of roughly 310,000 compounds were called active. The inconclusive results got no clear call from the source; some entries with a clear call stand among them for comparison. Calls follow the shape of the dose curve; as a rule, active = well fitted inhibition curve with a large enough effect; inconclusive = small, poorly fitted or top-dose-only effect, or another doubt; inactive = no such curve, though single readings can be large or run the other way. No potency is given beside an inconclusive call; the fits are too rough.

test: Primary qHTS for delayed death inhibitors of the malarial parasite plastid, 48 hour incubation; details: P. falciparum luciferase growth in erythrocytes; series mostly up to 28.7 µM; activity change, negative = inhibition: at the top concentration
Description: The goal of this screen is to discover new antimalarial compounds that act by inhibiting the development of the apicoplast in the malarial parasite Plasmodium falciparum. The biochemical processes that make this organelle essential for erythrocytic stage parasites are not well understood. However, antibiotics such as azithromycin and tetracycline, which target the apicoplast translational machinery, have a potent antimalarial effect.
We have developed a cell-based assay that measures parasite growth based on the expression of an integrated copy of a firefly luciferase reporter. To detect small molecules that cause this "delayed death" phenotype, erythrocytes infected with the luciferase-expressing parasites were incubated with compounds for either one or two generations, corresponding to 48 and 96 hours, respectively. Compounds that inhibit parasite growth in the second generation, but not the first, should be enriched in antimalarials that target the apicoplast. Growth inhibition is detected by a decrease in luciferase activity.
Assay Provider: David Fidock and Eric Ekland, Columbia University
Keywords: NIH Roadmap, MLPCN, MLI, MLSMR, qHTS, NCGC, qHTS, malaria, luciferase, viability
Four microliters of culture medium (RPMI 1640 with 0.5% w/v Albumax (GIBCO), 24 mM sodium bicarbonate and 10 ug/mL gentamycin) were dispensed by a Multi-drop Combi into white solid 1536-well plates (Grenier) and 23 nL compound was added by a pin tool. Four microliters of infected erythrocytes (2% hematocrit, 0.1% parasitemia final concentration) in culture medium were dispensed and the plates incubated for 48 hours at 37 C in 5% CO2. Two microliters of luciferase detection reagent was added and luminescence was detected by a ViewLux (PerkinElmer) reader.
% is scaled to controls: 0 for no effect and ±100 for the full control effect; potency is read from the fitted curve at half-maximal effect; tags tell the direction and shape of the fitted curve.

SMILES | Potency | activity change, negative = inhibition
CCC(C)[C@H](NC(=O)C1(c2ccccc2)CCN(C(=O)OC(C)(C)C)CC1)C(=O)N[C@@H](C(=O)O)c1ccccc1 (some centres undefined) | active: 13.1 µM | –
O=C(NCc1ccc(F)cc1)C(c1ccncc1)N(C(=O)c1csnn1)C1CC1 (centres undefined) | inconclusive [inhibitor, full curve, poor fit] | –
CCCn1cc(CN2CCCC(C(=O)c3cccc(OC(C)C)c3)C2)c(C)n1 (centres undefined) | inconclusive [inhibitor, single point] | –
CCOC(=O)C1CCCN(C(=O)c2cncc(Br)c2)C1 (centres undefined) | inconclusive [inhibitor, full curve, poor fit] | –
C[C@@H]1NS(=O)(=O)[C@H]2C[C@@H]3C=C[C@]2(O3)[C@H]1OC(=O)c1ccc(C(C)(C)C)cc1 | inconclusive [inhibitor, single point] | –
COCCn1c(=O)[nH]c2cc(C(=O)N3CCN(c4cccc(C(F)(F)F)c4)CC3)ccc2c1=O | inconclusive [inhibitor, partial curve, poor fit] | –
Cc1ccc(S(=O)(=O)N2CCOCC2)cc1NC(=O)COc1cccc(Oc2ccccc2)c1 | inconclusive [inhibitor, single point] | –
CCc1ccc(N2C(=O)NC(=O)/C(=C\c3cccn3CCOc3ccc(C(C)C)cc3)C2=O)cc1 | – | inactive: 145%
CC(C)(C)c1ccc(C(=O)NC(=S)NNC(=O)c2cccs2)cc1 | – | inactive: 0.565%
COc1cc(C(=O)OCCCN(C)C)cc(OC)c1OC | – | inactive: 4.9%
COc1ccc(OC2C(=O)N(Cc3ccc4c(c3)OCO4)C2c2sccc2C)cc1 (centres undefined) | inconclusive [inhibitor, partial curve, poor fit] | –
CCN1C(=O)[C@H]2[C@@H](c3ccc(-c4ccccc4)c(OC)c3)N[C@@](Cc3ccccc3)(C(=O)OC)[C@H]2C1=O | active: 1.85 µM | –
COc1ccc(/C=N/NC(=O)c2ccc(N)cc2)cc1Cn1cc([N+](=O)[O-])cn1 | – | inactive: 6.78%
CCCc1nc(SC2CCCC2)c2c(=O)n(C)c(=O)n(C)c2n1 | inconclusive [inhibitor, partial curve, poor fit] | –
O=C(/C=C/c1ccc(OC2CSC2)cc1)c1ccc(Cl)cc1 | – | inactive: 12.8%
CC(OC(=O)c1c2c(nc3ccccc13)/C(=C\c1ccc3c(c1)OCO3)CCC2)C(=O)Nc1ccc(S(N)(=O)=O)cc1 (centres undefined) | inconclusive [inhibitor, partial curve] | –
O=C(c1cccc(-n2cccc2)c1)N1CCN(S(=O)(=O)c2ccc(F)cc2)CC1 | inconclusive [inhibitor, single point] | –
CC1(C)CC(=O)c2c(O)cc(OCC(=O)N3CCN(c4ccc(F)cc4)CC3)cc2O1 | inconclusive [inhibitor, single point] | –
CC(C)(C)C(=O)N1CCN(S(=O)(=O)c2ccc3c(c2)OCCCO3)CC1 | – | inactive: 23%
Cc1ccc(NC(=O)c2ccccc2NS(=O)(=O)c2ccc(Cl)s2)cc1S(=O)(=O)N1CCOCC1 | active: 11.7 µM | –
C=CCn1c(SCC(=O)c2ccc(O)c(O)c2)nnc1-c1ccccc1OC | inconclusive [inhibitor, single point] | –
Fc1cnc(N2CCOCC2)nc1N1CCc2ccccc21 | inconclusive [inhibitor, single point] | –

SMILES | Potency | activity change, negative = inhibition
COc1ccc(CCNC(=O)C2CCCN(S(=O)(=O)c3ccc(F)cc3)C2)cc1OC (centres undefined) | inconclusive [inhibitor, partial curve, poor fit] | –
CCn1c(SC/C=C/c2ccccc2)nnc1-c1cccs1 | inconclusive [inhibitor, single point] | –
O=C1CC(c2ccco2)=Nc2ccccc2N1 | – | inactive: 20%
COc1cc(/C=C/C2=CC(C)(C)NC(=S)N2)cc(OC)c1OC | inconclusive [inhibitor, single point] | –
CCCNC(=O)c1onc(CS(=O)(=O)c2cccc(OC)c2)c1C(=O)NCCC | inconclusive [inhibitor, single point] | –
C/C=C/c1ccc(OCCOCCNCc2ccccc2)c(OC)c1 | inconclusive [inhibitor, partial curve] | –
COc1ccccc1N1CCN(C(=O)c2ccc(C(C)(C)C)cc2)CC1 | inconclusive [inhibitor, single point] | –
O=C(CN1C(=O)COc2ccc(S(=O)(=O)N3CCCC3)cc21)Nc1cccc(F)c1 | – | inactive: -0.221%
CC(C)CN(C(=O)COC(=O)CSc1ccc(Br)cc1)C1CCS(=O)(=O)C1 (centres undefined) | – | inactive: -0.436%
CCOC(=O)NC(=O)CSc1ccc(S(=O)(=O)N(C)C2CCCCC2)cn1 | active: 6.57 µM | –
Cc1ccc(S(=O)(=O)/C=C/c2ccccc2)cc1 | – | inactive: 8.48%
COc1ccc(C(=O)Nc2ccc(N3CCN(C)CC3)cc2)cc1[N+](=O)[O-] | – | inactive: 2.26%
COc1ccc(CN(C#N)c2nc(C)cc(C)n2)cc1 | inconclusive [inhibitor, single point] | –
O=C(Nc1ccc(Cl)cc1)Nc1nc(-c2ccccc2O)cs1 | active: 1.65 µM | –
Cc1cccc(NC(=O)C2CCCN(S(=O)(=O)c3ccc4[nH]c(=O)ccc4c3)C2)c1 (centres undefined) | inconclusive [inhibitor, partial curve] | –
CC(=O)c1cn(CCOc2cc(C)ccc2C)c2ccccc12 | inconclusive [inhibitor, partial curve] | –
O=C(CN1C(=O)NC2(CCc3ccccc32)C1=O)Nc1cc(C(F)(F)F)ccc1N1CCOCC1 (centres undefined) | inconclusive [inhibitor, single point] | –
Cc1ccccc1OCC(=O)NNC(=O)C1CCN(c2ncnc3sc(C)c(C)c23)CC1 | inconclusive [inhibitor, partial curve] | –
O=C1CC(C(=O)N2CCN(c3ccccc3Cl)CC2)CN1Cc1ccccc1 (centres undefined) | inconclusive [inhibitor, single point] | –
Cc1ccc(-c2nc(NCC3CCCO3)sc2C)cc1 (centres undefined) | inconclusive [inhibitor, single point] | –
CCn1c(SCC(=O)Nc2cccc(F)c2)nnc1-c1cc2cc(Br)ccc2o1 | inconclusive [inhibitor, single point] | –
CCSc1ccccc1C(=O)Nc1nncs1 | inconclusive [inhibitor, partial curve, poor fit] | –

SMILES | Potency | activity change, negative = inhibition
COc1ccc(C(=O)N2N=C(c3ccc(NS(C)(=O)=O)cc3)CC2c2cccs2)cc1 (centres undefined) | inconclusive [inhibitor, single point] | –
CCOC(=O)c1[nH]c2cc(OC)c(OC)cc2c1NC(=O)CN(C)C1CCCCC1 | inconclusive [inhibitor, single point] | –
Cc1cc(NC(=O)NCc2ccccc2)c(=O)n(Cc2ccc(F)cc2)c1 | inconclusive [inhibitor, single point] | –
CCCCN(C(=O)c1c(C)[nH]c(C(=O)OCC)c1C)c1ccccc1 | inconclusive [inhibitor, partial curve, poor fit] | –
COc1ccc(Cl)cc1N1Cc2ccccc2C1 | active: 13.1 µM | –
CN1C(CC(O)c2ccccc2)CCCC1CC(O)c1ccccc1 (centres undefined) | inconclusive [inhibitor, partial curve, poor fit] | –
O=C(CCNC(=O)c1ccc(Cl)cc1)Nc1cccc(S(=O)(=O)N2CCCCC2)c1 | inconclusive [inhibitor, partial curve, poor fit] | –
S=C(c1ccc(N2CCCC2)c(Br)c1)N1CCCCC1 | inconclusive [inhibitor, single point] | –
CC(C)(C)NC(=O)C(c1ccccc1)N(Cc1cccs1)C(=O)c1csnn1 (centres undefined) | inconclusive [inhibitor, partial curve, poor fit] | –
CCOC(=O)C1CCN(CC(O)COc2ccc(C(C)(C)C)cc2)CC1 (centres undefined) | inconclusive [inhibitor, single point] | –
COC(=O)c1cccc(C(=O)N2CCCC(CCC(=O)N(C)CCc3ccccn3)C2)c1 (centres undefined) | inconclusive [inhibitor, partial curve, poor fit] | –
COc1ccc(C(CC(=O)c2ccccc2)CC(=O)c2ccccc2)cc1 | inconclusive [inhibitor, single point] | –
O=C(COC(=O)CC1CCCC1)Nc1ccc(OC(F)F)cc1 | inconclusive [inhibitor, single point] | –
C=CCn1c(SCn2nnc3ccccc3c2=O)nnc1C1CCCCC1 | inconclusive [inhibitor, single point] | –
COc1ccccc1C1OC2=C(Nc3ccc([N+](=O)[O-])cc3N2)C1=O (centres undefined) | inconclusive [inhibitor, single point] | –
OCC1(Cc2ccccc2)CCCN(Cc2cnn(-c3ccccc3)c2)C1 (centres undefined) | inconclusive [inhibitor, partial curve, poor fit] | –
O=C(C1CCN(c2nc(-c3ccccc3)nc3c2CCC3)CC1)N1CCC(O)CC1 | active: 3.7 µM | –
CSc1ccc(C2=CC(=O)C[C@H](c3ccc(F)cc3)C2)cc1 | inconclusive [inhibitor, partial curve, poor fit] | –
CC(NC(=O)CN(C)Cc1cccs1)c1ccccc1 (centres undefined) | inconclusive [inhibitor] | –
O=C(C1=C[C@H](c2ccc(C(F)(F)F)cc2)C[C@H](OCc2ccc(CO)cc2)O1)N1CCCCCCC1 | inconclusive [inhibitor, full curve] | –
